Experimental data: the supplement of paper PMC3334620
In all, about 33,000 sequences were measured (“E-score (-0.5 to 0.5)”: median about -0.04, highest 2% from about 0.36 on). The list shows a part of the results.

target: T1, Hmlalpha2 (UniProt P0CY09); assay: PBM E-score (8-mer binding enrichment) (E-score (-0.5 to 0.5)); higher = stronger / more preferred TF binding; most listed sequences are background and not binding sites; settings: protein concentration: 200 nM; construct: GST-full length
T1 sequence: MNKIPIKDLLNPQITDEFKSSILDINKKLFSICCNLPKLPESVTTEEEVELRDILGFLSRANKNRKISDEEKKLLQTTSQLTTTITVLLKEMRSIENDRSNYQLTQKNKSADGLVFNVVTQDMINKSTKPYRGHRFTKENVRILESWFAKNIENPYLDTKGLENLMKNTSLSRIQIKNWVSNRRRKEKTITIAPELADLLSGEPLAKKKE
Outline: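 Masliner-normalised scans of fluorescent anti-GST signal were the basis for scoring. That signal came from GST-tagged yeast transcription factors applied at about 100-200 nM to double-stranded universal all-10-mer Agilent arrays on fresh or once-stripped slides. Each ungapped eight-base word, pooled with its reverse complement, received an E-score from the Universal PBM Analysis Suite.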

Row | Sequence | PBM E-score
1 | ACGTGGCA | 0.0943
2 | ACCCACGG | -0.232
3 | AGGTTGTA | 0.298
4 | CCGCCTCG | -0.0272
5 | ACAGGAAC | 0.171
6 | CGGGCTTC | -0.266
7 | GGCGACGA | -0.241
8 | TTCATAAA | -0.00038
9 | AAATGCGA | 0.129
10 | ATCTCGGA | -0.115
11 | GCATTGTA | 0.27
12 | GACTTATA | 0.0583
13 | AGTGTCGA | -0.0564
14 | CAATTGTC | -0.166
15 | ACACTACG | 0.16
16 | CGACGACA | -0.0291
17 | AGGAGTCA | -0.136
18 | ACCACGGC | -0.0977
19 | CGTTCGAG | 0.133
20 | GGAAGAAC | 0.138
21 | AATGTCGA | 0.199
22 | ACACCCCA | 0.0432
23 | CAACAGTG | -0.0459
24 | GAATTATA | 0.113
25 | ACTATGAG | -0.262

Row | Sequence | PBM E-score
26 | CGATTGAG | -0.138
27 | CTACTACA | 0.304
28 | GCTGTGAC | -0.148
29 | ACGACTAC | -0.0627
30 | CTATAGGA | -0.053
31 | TCTGTTCA | -0.00907
32 | ATCCTCCA | -0.166
33 | GGAAAGAC | -0.129
34 | AGTCCAAG | -0.0149
35 | TCTATTAA | 0.176
36 | ATAAAAGG | -0.104
37 | GAAATTTA | 0.251
38 | AGGACAAC | 0.148
39 | GCGACCTA | -0.165
40 | CCTAAGCG | -0.0694
41 | GCTGGTGA | 0.0149
42 | GCAATACC | 0.115
43 | CACGAAAC | 0.0891
44 | GGCAAAAC | -0.106
45 | CCGTGCCA | -0.343
46 | CCGACGCG | 0.0288
47 | TAGCAGCA | -0.0647
48 | ACATGCTC | 0.388
49 | ATATAAGC | -0.00391
50 | TAATGGGA | -0.0919

Row | Sequence | PBM E-score
51 | CCTCCAAC | -0.0472
52 | CACAGAAG | -0.0803
53 | ACGATATA | 0.172
54 | TCATCCGA | 0.0299
55 | AGTCTATG | -0.15
56 | CTGCGGTC | -0.306
57 | TATGACGA | -0.0622
58 | ATCAAGCA | -0.0276
59 | CCAGTATA | -0.194
60 | ATCCATAG | -0.262
61 | CCTTAAAA | 0.0328
62 | GCTCATAC | -0.111
63 | ATGAAGAA | 0.219
64 | GAAAGCCC | -0.225
65 | ATACTGGC | -0.149
66 | AGAGCCCA | -0.0942
67 | GAATTCTC | -0.0305
68 | AACGTGGT | 0.194
69 | GATCCACC | -0.201
70 | GGCTGGTA | -0.204
71 | AGTTGTGC | -0.0322
72 | AGGTGCAG | -0.173
73 | CCATCGGG | -0.186
74 | CCGATTCC | -0.241
75 | AGAGCCGG | -0.222

Row | Sequence | PBM E-score
76 | CGGTTCGA | -0.0762
77 | TAAGGAAA | -0.00733
78 | ATTGTTAC | 0.329
79 | AGCTTATG | 0.0824
80 | CTGGCAAG | 0.00339
81 | CAGTAGAG | -0.246
82 | ATTATCTC | -0.0567
83 | AAAAGACG | 0.0426
84 | ACAAGTTA | 0.204
85 | ACGTCTGC | -0.182
86 | GGTGCAAC | -0.234
87 | GAGTCGGA | -0.27
88 | CACGACCG | 0.0621
89 | AGGACGCG | -0.102
90 | ACGCCGAG | -0.0454
91 | AGCTCGCG | -0.0274
92 | ACAGCAGT | -0.0376
93 | ATGTTTCC | 0.0968
94 | AAACTCAA | 0.18
95 | CGAAGCGA | -0.131
96 | AGAGGGAC | -0.284
97 | CGTGGGTC | -0.127
98 | GCCAGAGC | -0.328
99 | CCCGCCAA | -0.222
100 | GGCGCAAA | -0.11

Row | Sequence | PBM E-score
101 | AGCCCAAA | 0.104
102 | CGGGCGGC | -0.304
103 | CAATCTCC | -0.222
104 | AACCCGAC | 0.109
105 | AAGTGACT | -0.18
106 | CCTGGTGA | -0.269
107 | ACGAATTA | 0.099
108 | AGACGGAA | -0.215
109 | GAGTATAA | 0.169
110 | TCCCTAAA | -0.0419
111 | AAAGTGAA | -0.00254
112 | CTACTCAC | 0.0417
113 | ATTCGGGC | -0.0522
114 | ACTCCACA | 0.0494
115 | AACGGTTG | 0.153
116 | CTAGATTC | -0.183
117 | ATCGAACA | 0.0534
118 | CTAACTCA | -0.0262
119 | GCGTTCGA | 0.159
120 | ACATTTTA | 0.291
121 | CGGATGGC | -0.103
122 | GTAATTTA | 0.346
123 | GCGCGGAC | 0.0699
124 | ACCTGAAT | 0.143
125 | CCCAATGC | -0.198

Row | Sequence | PBM E-score
126 | CCCTGGTC | -0.299
127 | ACCAAAGG | -0.219
128 | CGTTTTAA | 0.26
129 | AGAGTAAG | 0.195
130 | CCGTGCAA | 0.119
131 | GGATGACC | -0.218
132 | AACACTAT | 0.231
133 | AGTGTCAC | -0.112
134 | CTGCTGAA | -0.0106
135 | AGGGGTCG | -0.156
136 | CTGTCGTC | -0.0495
137 | GACCAGCC | -0.265
138 | AGCAGCAC | -0.0514
139 | TACAACTA | 0.182
140 | ATGAAACA | 0.17
141 | ACGTGACA | 0.239
142 | ACTACTCT | -0.0533
143 | GACCGAGC | -0.135
144 | ACTGGACA | -0.0919
145 | GTCCGTCA | -0.0862
146 | AGCGTCTA | -0.0915
147 | ACACCGAA | 0.058
148 | AGAAACCT | -0.132
149 | CAGCGTTC | -0.0056
150 | GCATGGAA | 0.0408

Row | Sequence | PBM E-score
151 | AATGTATA | 0.315
152 | GCTTTATA | -0.105
153 | GACCGACA | -0.139
154 | GCAATAAC | 0.0236
155 | ATAGTATA | 0.0551
156 | AATCGTAC | 0.102
157 | AATAGGAC | 0.0121
158 | AAAATGGA | 0.163
159 | CTTCAAAA | 0.0667
160 | CAGTCAGC | -0.113
161 | CATGTACG | 0.372
162 | GAATCGAA | 0.117
163 | ACTCAATA | 0.211
164 | GAGGACGA | -0.108
165 | ACACCTCG | -0.0181
166 | ATTGCACG | 0.255
167 | CTCCCTGC | -0.278
168 | CTCAGTTA | 0.042
169 | CCGGTAGC | -0.23
170 | AATTAGTA | 0.205
171 | AGTCTCTA | -0.111
172 | CGAAGAAC | 0.196
